The test deals with influenza virus (PR-8). Nature of the test: animal or person. As to conditions: unidentified influenza virus, in Mus musculus, ip, 504 h, read-out: Prevention from influenza infection (Survival rate %).

The structures appear in SMILES notation.

Regarding `CC(C)=CCCC(C)=CCCC(C)=CCCC(C)=CCCC(C)=CCCC(C)=CCCC(C)=CCCC(C)=CCCC(C)=CCCC(C)=CCNc1ccc(C(=O)O)c(O)c1` [drawing 45], the responders at 50 mg/kg was 50%.

Take `CC(C)=CCCC(C)=CCCC(C)=CCCC(C)=CCCC(C)=CCCC(C)=CCCC(C)=CCCC(C)=CCCC(C)=CCCC(C)=CCNCc1ccc([N+](=O)[O-])cc1` [drawing 46]: the responders at 50 mg/kg amounted to 40%.

Consider `CC(C)=CCCC(C)=CCCC(C)=CCCC(C)=CCCC(C)=CCCC(C)=CCCC(C)=CCCC(C)=CCCC(C)=CCCC(C)=CCNCc1cccc2ccccc12` [drawing 47], for which the responders at 50 mg/kg amounted to 50%.

As to `CC(C)=CCCC(C)=CCCC(C)=CCCC(C)=CCCC(C)=CCCC(C)=CCCC(C)=CCCC(C)=CCCC(C)=CCCC(C)=CCNCc1ccc(C)cc1` [drawing 48], the responders at 50 mg/kg amounted to 55%.

For the compound `CC(C)=CCCC(C)=CCCC(C)=CCCC(C)=CCCC(C)=CCCC(C)=CCCC(C)=CCCC(C)=CCCC(C)=CCCC(C)=CCNCc1ccc(Cl)cc1` [drawing 49], the responders at 50 mg/kg came to 60%.

As to `COc1ccc(CNCC=C(C)CCC=C(C)CCC=C(C)CCC=C(C)CCC=C(C)CCC=C(C)CCC=C(C)CCC=C(C)CCC=C(C)CCC=C(C)C)cc1OC` [drawing 50], the responders at 50 mg/kg turned out to be 70%.

`CC(C)=CCCC(C)=CCCC(C)=CCCC(C)=CCCC(C)=CCCC(C)=CCCC(C)=CCCC(C)=CCCC(C)=CCCC(C)=CCNCCc1ccc(N)cc1` [drawing 51]: the responders at 50 mg/kg came to 30%.

With `COc1ccc(CCNCC=C(C)CCC=C(C)CCC=C(C)CCC=C(C)CCC=C(C)CCC=C(C)CCC=C(C)CCC=C(C)CCC=C(C)CCC=C(C)C)cc1OC` [drawing 52], the responders at 50 mg/kg was 30%.

Take `COc1cc(CNCC=C(C)CCC=C(C)CCC=C(C)CCC=C(C)CCC=C(C)CCC=C(C)CCC=C(C)CCC=C(C)CCC=C(C)CCC=C(C)C)ccc1O` [drawing 53]: the responders at 50 mg/kg came out at 60%.

Turning to `COc1ccc(CNCC=C(C)CCC=C(C)CCC=C(C)CCC=C(C)CCC=C(C)CCC=C(C)CCC=C(C)CCC=C(C)CCC=C(C)CCC=C(C)C)cc1` [drawing 54], the responders at 50 mg/kg amounted to 10%.

Regarding `COc1ccc(CNCC=C(C)CCC=C(C)CCC=C(C)CCC=C(C)CCC=C(C)CCC=C(C)CCC=C(C)CCC=C(C)CCC=C(C)C)cc1OC` [drawing 55], the responders at 50 mg/kg stood at 70%.

In the case of `CC(C)=CCCC(C)=CCCC(C)=CCCC(C)=CCCC(C)=CCCC(C)=CCCC(C)=CCCC(C)=CCCC(C)=CCCC(C)=CCNCc1cccc(CN)c1` [drawing 56], the responders at 50 mg/kg is 60%.

For the compound `COc1cccc(CNCC=C(C)CCC=C(C)CCC=C(C)CCC=C(C)CCC=C(C)CCC=C(C)CCC=C(C)CCC=C(C)CCC=C(C)CCC=C(C)C)c1OC` [drawing 57], the responders at 50 mg/kg is 30%.

The values are drawn from patent US4514573A, “Isoprenylamine derivatives” (priority 1981, dated 1985).
